Out of some 310,000 compounds screened, about 14,000 (4.5%) showed an effect of 50% or more. Effects have a minus sign here. The list shows a part of the results.
The compounds below were run against human ether-à-go-go-related gene (hERG) potassium channel (human, UniProt Q12809) (assay: primary screen, population patch clamp on CHO cells stably expressing hERG).
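Note: peak tail current of the secondary pulse compared with the same well before compound.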

Sequence of human ether-à-go-go-related gene (hERG) potassium channel (Q12809 whole entry, looked up): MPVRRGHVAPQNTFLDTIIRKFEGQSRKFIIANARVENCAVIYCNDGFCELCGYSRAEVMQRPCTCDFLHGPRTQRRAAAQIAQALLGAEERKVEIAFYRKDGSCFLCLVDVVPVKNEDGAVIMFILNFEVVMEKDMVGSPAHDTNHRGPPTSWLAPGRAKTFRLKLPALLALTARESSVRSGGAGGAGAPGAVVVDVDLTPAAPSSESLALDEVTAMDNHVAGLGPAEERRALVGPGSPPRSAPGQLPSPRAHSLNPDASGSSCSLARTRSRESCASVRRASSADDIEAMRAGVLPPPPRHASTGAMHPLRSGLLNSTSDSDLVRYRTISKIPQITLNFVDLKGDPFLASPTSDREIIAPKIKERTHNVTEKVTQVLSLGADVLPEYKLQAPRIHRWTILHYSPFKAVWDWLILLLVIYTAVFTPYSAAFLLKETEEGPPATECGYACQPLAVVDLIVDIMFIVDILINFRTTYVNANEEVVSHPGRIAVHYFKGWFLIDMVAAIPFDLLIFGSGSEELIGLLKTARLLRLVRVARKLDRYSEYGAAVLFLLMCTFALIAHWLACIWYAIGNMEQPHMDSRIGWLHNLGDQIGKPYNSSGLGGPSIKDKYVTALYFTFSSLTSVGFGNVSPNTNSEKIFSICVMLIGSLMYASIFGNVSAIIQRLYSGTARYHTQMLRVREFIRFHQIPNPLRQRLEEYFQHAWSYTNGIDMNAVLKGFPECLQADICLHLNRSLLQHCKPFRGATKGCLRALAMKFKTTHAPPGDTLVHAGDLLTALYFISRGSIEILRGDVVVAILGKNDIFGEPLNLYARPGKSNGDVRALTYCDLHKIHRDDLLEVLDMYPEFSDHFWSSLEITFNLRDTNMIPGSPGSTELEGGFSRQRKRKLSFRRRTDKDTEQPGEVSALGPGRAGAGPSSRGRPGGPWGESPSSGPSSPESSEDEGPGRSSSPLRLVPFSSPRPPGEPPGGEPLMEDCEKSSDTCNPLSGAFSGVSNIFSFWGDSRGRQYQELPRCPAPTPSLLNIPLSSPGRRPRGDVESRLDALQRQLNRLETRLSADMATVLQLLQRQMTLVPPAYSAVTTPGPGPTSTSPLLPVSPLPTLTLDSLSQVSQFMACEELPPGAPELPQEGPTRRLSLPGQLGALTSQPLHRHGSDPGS

Row | Compound | hERG current change (%, negative = inhibition) at 10uM
1 | Cc1cc(CNC(=O)C2(C(F)(F)F)CC(CCCO)CCCO2)nn1C (centres unmarked) | 7.56%
2 | Cn1c(SCC(=O)Nc2ccc(Cl)cc2)nnc1C1CC1 | -4.96%
3 | CN(C)C=NC(=O)c1cc(C(=O)c2ccccc2Cl)c[nH]1 | 16.8%
4 | CC1CCN(C(=O)Cc2nn(C)c(=O)c3ccccc23)CC1 | 2.18%
5 | c1cnn(-c2cncc(-n3cccn3)n2)c1 | 19.1%
6 | CCOC(=O)c1c(CN(C)C)oc2cc(CN(C)C)c(O)c(CSc3ccccc3)c12.Cl | -19.3%
7 | O=C(N/N=C/C=N/NC(=O)c1ccco1)c1ccco1 | 13.4%
8 | CC1(C)OC(=O)CC1C(=O)NCc1ccccc1 (centres unmarked) | 9.98%
9 | COc1cc(C(=O)N(CCCO)Cc2cc3ccc(C)c(C)c3[nH]c2=O)cc(OC)c1OC | -11.9%
10 | COc1ccc(C2/C=C\CN(CC(C)C)CC(=O)N2Cc2ccc(F)cc2)cc1 (centres unmarked) | -6.03%
11 | C[C@@H]1CC=C[C@H]2[C@H]1C(=O)N(Cc1ccccc1)[C@H]2c1ccc(-c2ccoc2)cc1F | 18.9%
12 | Cc1ccc(N2C(=O)/C(=C\c3ccco3)SC2=S)cc1 | 24.5%
13 | CCCOc1ccc(C(=O)N2CCCC2C(=O)O)cc1 (centres unmarked) | 8.5%
14 | O=[N+]([O-])CCO | 16.3%
15 | CC1CN=C(NCc2ccc(F)cc2)S1 (centres unmarked) | -8.5%
16 | CC1(C)Cc2nc3oc4c(SCC(N)=O)ncnc4c3cc2CO1 | 4.95%
17 | CC(C)(C)C(=O)NC1CC2CCCC(C1)N2C(=O)Nc1ccccc1 (centres unmarked) | 14.9%
18 | O=[N+]([O-])CC(c1ccc(F)cc1)c1c[nH]c2ccccc12 (centres unmarked) | -13.1%
19 | COc1ccc(CNC(=S)NC(C)CCc2ccccc2)cc1 (centres unmarked) | -40%
20 | N#C/C(=C/c1ccccc1[N+](=O)[O-])c1nc(C2CC2)cs1 | -12.3%
21 | COc1ccc(OC)c(NC(=O)Cc2csc(NC(=O)Nc3ccccc3OC)n2)c1 | -5.66%
22 | S=C(NCCc1ccccc1)N/N=C/c1ccccc1Cl | 26.8%

Row | Compound | hERG current change (%, negative = inhibition) at 10uM
23 | Cc1cc(C)cc(-n2c3nc4ccccc4nc3c3c(=O)n(Cc4ccco4)cnc32)c1 | 6.26%
24 | O=S(=O)(c1cccc(NC(=S)N2CCN(c3ccccc3F)CC2)c1)C(F)F | 16.4%
25 | CC1(C)SC(=S)N(c2ccccc2)C1/[N+]([O-])=C/c1cccc([N+](=O)[O-])c1 (centres unmarked) | 16.4%
26 | Cc1ccccc1Cn1nc(C)c(NC(=O)c2cc(CC(C)C)on2)c1C | -0.721%
27 | Cc1nc2c([nH]1)C1(CCN(Cc3ccccc3)CC1)C(C#N)=C(N)O2.Cl | -52.5%
28 | Cc1ccc(NCN2C(=O)C3CC=C(Cl)CC3C2=O)cc1 (centres unmarked) | 6.98%
29 | Cc1cccc(CCN2C(N(C)C)=NC[C@@H]2CC(C)C)c1 | -18.1%
30 | CCCCCCn1c(=O)c(C(=O)N/N=C/c2cccc(F)c2)c(O)c2ccccc21 | 14.8%
31 | CCc1ccc(NC(=O)Nc2ccc3c(c2)CCC3)cc1 | 2.21%
32 | CCCCCCOc1ccc(CN2CCN(CCO)CC2)cc1 | -42%
33 | CCOC(=O)C1(CCCc2ccccc2)CCN(C(=O)CCn2cncn2)CC1 | -56.4%
34 | O=C(OCC1OC(n2ccc(=O)[nH]c2=O)C(Cl)C1O)c1ccccc1 (centres unmarked) | -9.37%
35 | O=C(Nc1ccccc1F)C1CC1c1ccccc1 (centres unmarked) | 3.92%
36 | O=C(NC(=S)Nc1cc(S(=O)(=O)N2CCOCC2)ccc1O)c1ccco1 | 16.5%
37 | O=C(CCNS(=O)(=O)c1cccc2nonc12)N1CCN(c2cccc(Cl)c2)CC1 | -50.6%
38 | CCCCc1cn([C@@H](CCCCNC(=O)OC(C)(C)C)C(=O)N2CCN(C(=O)OC(C)(C)C)CC2)nn1 | -2.98%
39 | O=C1/C(=C\c2ccccc2)SC(=S)N1CCC(=O)N1CCCCC1CCO (centres unmarked) | 0.682%
40 | COc1ccc(-c2csc(NC(=O)CC(NC(C)=O)c3ccccc3)n2)cc1OC (centres unmarked) | -4.59%
41 | CCc1ccc(/C=C2\SC(=S)N(CCCC(=O)Nc3ccccc3C(=O)O)C2=O)cc1 | 16.8%
42 | COc1ccc(/C=C/c2nnc(NC(=O)COc3cccc(C)c3)s2)cc1 | 9.43%
43 | CCOc1cc(C2C3=C(CC(C)(C)CC3=O)N(CCCOC)C3=C2C(=O)CC(C)(C)C3)ccc1O | 2.29%
44 | CCCCNC(=O)Cn1c(=O)oc2cc(S(=O)(=O)N3CC(C)CC(C)C3)ccc21 (centres unmarked) | 9.3%

From publication PMC4336329 (PLoS ONE, 2015)
